The experiment relates to K. pneumoniae UNT023-1(KPC producing strain). As to the kind of experiment: MIC of test articles of the mouse pneumonia study. Particulars: Klebsiella pneumoniae.
Take `CCN(C)[C@@H]1C(O)=C(C(N)=O)C(=O)[C@@]2(O)C(O)=C3C(=O)c4c(O)cc(C5CCCN5)c(C(F)(F)F)c4C[C@H]3C[C@@H]12` (single isomer, unassigned) [Compound S4-14-5-A]: the MIC was 0.0625 µg/mL.
With `CN(C)c1cc(NC(=O)CNC(C)(C)C)c(O)c2c1C[C@H]1C[C@H]3[C@H](N(C)C)C(O)=C(C(N)=O)C(=O)[C@@]3(O)C(O)=C1C2=O` [Tigecycline, tigecycline] the figure was 1 µg/mL; with `CCN(CC)[C@@H]1C(O)=C(C(N)=O)C(=O)[C@@]2(O)C(O)=C3C(=O)c4c(O)cc(C5CCCN5)c(C(F)(F)F)c4C[C@H]3C[C@@H]12` (single isomer, unassigned) [Compound S4-14-14-A], 0.0625 µg/mL.

What is called MIC is the lowest concentration that inhibits growth of the organism.
